Assay results taken from PubChem BioAssay AID588334 (Broad Institute, 2011).
Screen size: about 300,000 compounds; about 2,300 (0.77%) were called active. This list was built around the results that the source calls inconclusive (neither active nor inactive); the mix of calls is not that of the screen.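 How the source made its calls: active means mean activation of at least 80% with every replicate also reaching 80%; inconclusive means mean reaches 80% but some replicate falls short; inactive means the rest.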

Test: MITF-driven TRPM1 luciferase induction in melanoma cells – cell-based, SK-MEL-5, single point, primary screen (AID 588334);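 further: 0% = neutral control wells and 100% = parthenolide positive control wells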
Conditions: SK-MEL-5 TRPM1-promoter luciferase, 24 h; at 12.5 µM; hits give high values; % of positive control, neutral wells = 0

activation, active:
CCOc1ccc(N=C(/C(C(=O)C(=O)N2CCOCC2)=C(\O)c2ccccc2)c2ccccc2)cc1 86.8%, Cc1ccc(NC(=S)Nc2ncccc2C)c(C)c1 92.2%, Cc1cccnc1NC(=O)COc1ccc2c(c1)CCC2 100%, Cc1csc(NC(=S)NC(=O)c2ccccc2)n1 109%, Cn1cc(Br)c(C(=O)Nc2sc3c(c2C(N)=O)CCCC3)n1 85.1%, O=C(Nc1cccc(Cl)c1)Nc1ccc2nccnc2c1 112%, CCSc1nnc(NC(=O)c2ccccc2)s1 104%, Cc1cc2c(cc1C)CN(c1ccccc1)C2 95.6%, CC(=O)Nc1ccc(NC(=O)C(C)OC(=O)/C(C#N)=C/c2ccc(N(C)C)cc2)cc1 (stereo not given) 81.2%, O=C(c1ccc(F)cc1)c1ccc(N2CCCCC2)cc1 103%, COC(=O)c1c(-c2ccncc2)csc1NC(=O)c1ccoc1C 88.2%, O=C(OCc1ccccc1F)c1ccc2c(c1)OCCO2 126%, Cc1cccc(C(=O)Nc2sc(-c3ccccc3)cc2C(=O)O)c1 92.6%, COc1ccc(C2CC(=O)c3ccccc3O2)cc1 (stereo not given) 126%, O=C(Nc1ccc(Cl)cc1)N1CCC(c2ccccc2)C1 (stereo not given) 116%, COc1cc(C)ccc1OCc1cc(C(=O)N2CCC(c3ccc(F)cc3)C2)no1 (stereo not given) 82.2%, O=C(Nc1cccc(O)c1)c1ccc(NC(=O)c2cccs2)cc1 103%, O=C(c1ccccc1)c1cc2ccccc2o1 108%, COc1ccc2c(CC(=O)N3CCc4ccccc43)coc2c1 111%, CCOc1ccc2oc(C(=O)Nc3ccc4c(c3)OCO4)c(C)c2c1 89.8%, COc1ccc(Oc2nnc(C)c3ccccc23)cc1 88.8%

activation, inconclusive:
CC(C)(C)n1ncc2c(=O)n(CC(=O)NCc3ccco3)cnc21 86%, Cc1cccc(NC(=O)c2cc(-c3cc(C)ccc3O)n[nH]2)c1 81.1%, O=C(/C=C/c1ccc(Cl)c(Cl)c1)Nc1cccnc1 84.3%, Cc1c(C)n(CCc2ccccc2)c2ncnc(NCCCO)c12 92.7%, N#CCSc1nc(-c2ccccc2)cs1 81.6%, CCCS(=O)(=O)c1c(S(=O)(=O)CCC)c2c(N)cccn2c1C(=O)c1ccc(OC)cc1 372%, O=c1[nH]c(COc2ccc(Br)cc2Cl)nc2ccccc12 95.4%, O=C(COc1ccc(F)cc1Cl)NC1CCCCCC1 81.5%, Cc1ccc2nc(NC(=O)c3ccc4c(c3)OCO4)sc2c1 82.4%, CC(C)CNC(=O)C1CCN(Cc2ccc(OCc3ccccc3)cc2)CC1 85%, CC(=O)c1cccc(NC(=O)c2noc3c2CCc2ccccc2-3)c1 85.7%, c1cc(-c2cc3cc4c(cc3cn2)OCO4)cs1 80%, CC(C)NC(=O)CSc1nc(-c2ccccc2)cs1 80.3%, O=c1[nH]c(COc2ccccc2)nc2ccccc12 83%, CCCCCOc1ccc(CSc2ncn[nH]2)cc1 89.3%, c1ccc2c(c1)NC1(CCCC1)n1c-2nc2ccccc21 83.7%, Clc1cccc(N/N=C/c2ccc(N3CCOCC3)cc2)c1 83.4%, COc1ccc(NC(=O)CCSc2ccc(F)cc2)cc1 86.7%, Cc1ccc(-c2ccc(/C=C/C(=O)c3ccccc3)o2)cc1 81%, CCSc1nnc(NC(=O)NC2CCCCC2)s1 82.1%, O=C(c1ccc(Br)cc1)c1coc2ccc(O)cc12 89.1%, O=C(CSc1ncnc2c1oc1ccccc12)c1cccs1 84%, CCOC(=O)c1sc2nc3n(c(=O)c2c1C)CCCCC3 91.8%, CC(=O)c1cnc2cc(-c3ccc(C)cc3)nn2c1C 80.4%, O=C(COc1ccc(F)cc1)c1ccc2c(c1)CCCC2 118%, CC(=O)c1cccc(NC(=O)c2cc(-c3ccc(C)cc3)on2)c1 82.1%, CN1CCN(/N=C/c2ccc(-c3ccccc3)cc2)CC1 82.2%, CSc1cccc(NC(=O)c2sc3nc4n(c(=O)c3c2C)CCC4)c1 80.4%, O=C(CNc1cccc(F)c1)N1CCc2ccccc2C1 82.5%

activation, inactive:
CC(C)(C)n1cnc2cc(NCc3ccc(Br)cc3)ccc21 74.7%, CC1COCC(C)N1C1=C(Cl)C(=O)c2ccccc2C1=O (stereo not given) -96.4%, COc1ccccc1N1CCN(CC(=O)Nc2ccc(Cl)c(C(F)(F)F)c2)CC1 -13.2%, CCOC(=O)N1CCN(S(=O)(=O)N2CCCC(C(=O)NCCc3ccc(C)cc3)C2)CC1 (stereo not given) 1.17%, CCc1ccc(CN(C)C(=O)CCc2nnc(CCc3ccccc3OC)o2)nc1 2.66%, CCCC(=O)Nc1sc(C)c(-c2ccc(OC)cc2)c1C#N -2.22%, COc1cc2c(cc1OC)-c1cc(Nc3ccccc3Br)nc(=O)n1CC2 -7.18%, CCN(c1ccc(NC(=O)COC(=O)c2cc3ccccc3oc2=O)cc1)C(C)C -0.644%, O=C(NCC(=O)N(Cc1ccccc1)C(C(=O)NC1CCCCC1)c1ccco1)c1ccco1 (stereo not given) -4.31%, CCOC(=O)N1CCc2c(sc3c2c(=O)n(Cc2ccccc2)c(=O)n3CC(=O)NCC2CCCO2)C1 (stereo not given) 5.62%, CCOc1ccccc1N=NC1C(=O)N(C(N)=S)N=C1C (stereo not given) -9.1%, Nc1cc2c(cc1N)-c1ccccc1C2 31.9%, c1ccc2sc(NN=C3CCCCCC3)nc2c1 -0.13%, CCn1nnc(NC(=O)c2sc3ccccc3c2Cl)n1 61.7%, COc1ccc(C(=O)NC(=C(Cl)Cl)S(=O)(=O)c2ccc(C)cc2)cc1 3.54%
